Experimental data from PubChem BioAssay AID2147 (National Center for Advancing Translational Sciences (NCATS), 2009).
Hit rate of the full screen: of about 230,000 compounds, about 3,600 (1.6%) were called active. Inconclusive means that the source gave no clear call. Such entries were picked first, then a sample of the others. Calls come from the whole dose curve; as a rule, active = well fitted inhibition curve with a large enough effect (not every such curve was filed as active); inconclusive = small, poorly fitted or top-dose-only effect, or another doubt; inactive = no such curve, though single readings can be large or run the other way. A potency beside an inconclusive call is a rough fit, not a confirmed value.

Biological target: Lysine-specific demethylase 4E (Homo sapiens) (UniProt B2RXH2)
Experiment: qHTS Assay for Inhibitors of Human Jumonji Domain Containing 2E (JMJD2E)
Conditions: JMJD2E catalytic domain, FDH-coupled NADH fluorescence (FDH is formaldehyde dehydrogenase); series mostly up to 57.1 µM; activity change, negative = inhibition: at the top concentration
Note: nearly all actives have a fitted effect of over 50% in size.
Potency is the fitted concentration of half-maximal effect; tags give direction and shape of the fitted curve.
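Throughout, for activity change, negative = inhibition: 0% = wells with enzyme and -100% = buffer wells without enzyme.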

Chain of UniProt B2RXH2 (B2RXH2 whole entry, looked up, the tested form may be a part): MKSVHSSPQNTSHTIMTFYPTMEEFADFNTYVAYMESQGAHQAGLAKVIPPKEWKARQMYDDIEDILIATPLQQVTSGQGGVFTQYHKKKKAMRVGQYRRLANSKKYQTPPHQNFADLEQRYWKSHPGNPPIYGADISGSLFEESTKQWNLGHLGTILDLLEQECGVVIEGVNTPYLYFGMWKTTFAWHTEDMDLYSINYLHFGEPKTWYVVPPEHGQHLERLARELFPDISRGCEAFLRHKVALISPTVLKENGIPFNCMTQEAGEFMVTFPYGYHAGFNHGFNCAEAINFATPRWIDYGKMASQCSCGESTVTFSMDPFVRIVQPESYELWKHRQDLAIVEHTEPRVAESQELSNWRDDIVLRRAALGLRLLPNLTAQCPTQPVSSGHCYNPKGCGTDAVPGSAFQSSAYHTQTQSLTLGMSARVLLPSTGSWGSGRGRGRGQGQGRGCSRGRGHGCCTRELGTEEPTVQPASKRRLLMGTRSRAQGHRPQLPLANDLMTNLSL

Row | Compound | Potency | activity change, negative = inhibition
1 | O=C(NCCCN1CCOCC1)c1c(O)c2ccccc2[nH]c1=O | inconclusive: 35.5 µM [inhibitor, single point] | 
2 | COCC(=O)N(Cc1cc2ccc(C)cc2[nH]c1=O)c1ccc(OC)cc1 | inconclusive: 35.5 µM [inhibitor, single point] | 
3 | c1ccc2c(NCC3CCCO3)nc(N3CCCCC3)nc2c1 (centres undefined) | inconclusive: 22.4 µM [inhibitor, partial curve] | 
4 | COc1ccc(Nc2nc3ccccc3n3nnnc23)cc1 | inconclusive: 35.5 µM [inhibitor, single point] | 
5 | Cc1cc([N+](=O)[O-])nn1CC(=O)Nc1sc2c(c1C(N)=O)CCCC2 |  | inactive: -3.03%
6 | CCc1nnc(NC(=O)/C=C/c2ccc(C)o2)s1 | inconclusive: 28.2 µM [inhibitor, single point] | 
7 | COc1ccc(C2(CNS(=O)(=O)c3ccccc3)CCOCC2)cc1 |  | inactive: 4.99%
8 | COc1ccc(-c2nc(CC(=O)O)cs2)cc1 | inconclusive: 31.6 µM [inhibitor, partial curve] | 
9 | CCN(CC)C(=O)c1ccc(-c2cccs2)s1 | inconclusive: 31.6 µM [inhibitor, partial curve] | 
10 | O=C(N/N=C/c1ccccc1)c1c(O)c2ccccc2[nH]c1=O | inconclusive: 17.8 µM [inhibitor, single point] | 
11 | COc1ccc(/C(N)=N/OC(=O)c2ccco2)cc1 |  | inactive: -1.86%
12 | CCN(CC)c1ccc(-c2nnc(SCC(=O)Nc3ccccc3C#N)n2-c2ccccc2)cc1 | inconclusive: 28.2 µM [inhibitor, single point] | 
13 | Cc1ccc(OCC(=O)Nc2ccc(-c3nnc(-c4ccco4)o3)cc2)cc1 | inconclusive: 5.01 µM [inhibitor, full curve] | 
14 | O=C(CSc1ncn[nH]1)N1N=C2/C(=C/c3ccccc3)CCCC2C1c1ccccc1 (centres undefined) | inconclusive: 31.6 µM [inhibitor, single point] | 
15 | O=C(N/N=C1\CCSC1)c1cc(Cl)ccc1O | inconclusive: 35.5 µM [inhibitor, single point] | 
16 | O=S(=O)(c1ccc(F)cc1)N1CCC(N2CCCCCC2)CC1 | inconclusive: 35.5 µM [inhibitor, single point] | 
17 | CCOC(=O)c1oc2ccccc2c1NC(=O)COc1ccc(F)cc1 | inconclusive: 35.5 µM [inhibitor, partial curve] | 
18 | Cc1ccc(S(=O)(=O)c2c(N)n(CCCN(C)C)c3nc4ccccc4nc23)cc1 | inconclusive: 22.4 µM [inhibitor, partial curve] | 
19 | O=C(Nc1ccc2c(c1)C(=O)N(c1ccccc1)C2=O)c1cccs1 | inconclusive: 7.94 µM [inhibitor, partial curve] | 
20 | COc1ccc(OC)c(NS(=O)(=O)c2ccc3c(c2)n(C)c(=O)n3C)c1 |  | inactive: -0.439%
21 | Cc1csc(NC(=O)COc2ccc3c(C)cc(=O)oc3c2)n1 | inconclusive: 28.2 µM [inhibitor, single point] | 
22 | Cc1ccsc1C1C(C#N)=C(N)OC2=C1C(=O)CCC2 (centres undefined) |  | inactive: 0.0371%
23 | CCC/C=N/NC(=O)c1cc(-c2ccccc2)nc2ccccc12 | inconclusive: 28.2 µM [inhibitor, single point] | 
24 | Cc1ccccc1NC(=O)c1sc2nc3c(c(-c4ccco4)c2c1N)CCC3 |  | inactive: 0.866%
25 | COC(=O)c1ccccc1NC(=O)CSc1ncccn1 |  | inactive: -25%

Row | Compound | Potency | activity change, negative = inhibition
26 | CS(C)(=O)=O | inconclusive: 39.8 µM [inhibitor, single point] | 
27 | COCCn1nnnc1C1(N(Cc2cc3cc(C)ccc3[nH]c2=O)CC2CCCO2)CCN(C)CC1 (centres undefined) | inconclusive: 22.4 µM [inhibitor, partial curve] | 
28 | S=C(Nc1ccc2nccnc2c1)N1CCCC1 | inconclusive: 14.1 µM [inhibitor, partial curve] | 
29 | COc1ccccc1N(CC(=O)Nc1ccccc1C(=O)NCC(C)C)S(C)(=O)=O | inconclusive: 39.8 µM [inhibitor, single point] | 
30 | C(=N\N1CCN(Cc2cccc3ccccc23)CC1)/c1cccnc1 |  | inactive: 1.72%
31 | COc1ccc(CCN(C)CCCN2CC(c3ccccc3)CC2=O)cc1OC (centres undefined) | inconclusive: 25.1 µM [inhibitor, single point] | 
32 | O=C(CN1CCOc2ccccc21)NCc1ccc(Cl)cc1 |  | inactive: -0.661%
33 | COc1cccc(C2c3[nH]c4ccccc4c3CCN2C(=O)Cn2cncn2)c1OC (centres undefined) |  | inactive: -0.546%
34 | CC(=O)c1c(O)cc2n(c1=O)-c1ccc(Cl)cc1C2(C)C | inconclusive: 25.1 µM [inhibitor, partial curve] | 
35 | Cc1cc(C)c2c(C)nn(-c3ccccc3)c2n1 | inconclusive: 17.8 µM [inhibitor, partial curve] | 
36 | CCCCn1c(SCC(=O)NCc2ccco2)nc2cc(S(N)(=O)=O)ccc21 |  | inactive: 1.05%
37 | CCOC(=O)c1oc2ccccc2c1NC(=O)COc1cccc(OC)c1 | active: 5.01 µM | 
38 | CCOc1ccc(C(=O)Nc2nnc(C)s2)cc1OCC | inconclusive: 39.8 µM [inhibitor, single point] | 
39 | O=C(NC[C@H](O)c1ccccc1)c1ccccc1 |  | inactive: 17.4%
40 | CCn1cc(NC(=O)Nc2ccccc2C(=O)OC)c(C(N)=O)n1 | inconclusive: 39.8 µM [inhibitor, single point] | 
41 | COc1ccc2c(c1OC)CCC2=O | inconclusive: 15.8 µM [inhibitor, partial curve] | 
42 | CCC(C)NC(=O)CSc1nnc(-c2cc(-c3ccc(C)cc3)nc3ccccc23)n1N (centres undefined) | inconclusive: 28.2 µM [inhibitor, partial curve] | 
43 | N#Cc1ccc(S(=O)(=O)Nc2ccc3ccccc3n2)cc1 | inconclusive: 25.1 µM [inhibitor, single point] | 
44 | Cc1ccc(C2=NOC(=O)/C2=C\C=C\c2ccccc2)cc1 | inconclusive: 3.98 µM [inhibitor, full curve] | 
45 | CCC(CC)n1[nH]c(=O)c2c(C)cc(C)nc21 |  | inactive: -4.13%
46 | Fc1ccc(Nc2nc(-c3cccnc3)nc3ccccc23)cc1 | inconclusive: 35.5 µM [inhibitor, single point] | 
47 | CCOC(=O)CNC(=O)c1ccc2[nH]c3c(c2c1)CCCC3 | inconclusive: 31.6 µM [inhibitor, single point] | 
48 | O=C(CCC(=O)OCc1ccc(Br)cc1)Nc1ccccc1 |  | inactive: 11.5%
49 | Cc1ccsc1/C=N/N1CCOCC1 |  | inactive: -4.64%
50 | Cc1nnc(C)c2c(C)n(Cc3ccc4c(c3)OCO4)c(C)c12 | active: 22.4 µM | 

Row | Compound | Potency | activity change, negative = inhibition
51 | N#Cc1nc(-c2ccco2)oc1NCCN1CCOCC1 | inconclusive: 31.6 µM [inhibitor, partial curve] | 
52 | COc1cccc(C(NC(=O)c2ccccc2F)NC(=O)c2ccccc2F)c1 |  | inactive: -1.77%
53 | O=C(Nc1ccc(O)cc1C(=O)O)c1ccc2c(c1)C(=O)N(Cc1ccco1)C2=O |  | inactive: 4.66%
54 | O=C(O)C(Oc1ccc2ccc(=O)oc2c1)c1ccccc1 (centres undefined) | inconclusive: 28.2 µM [inhibitor, partial curve] | 
55 | CCn1c(C)c(/C=N/Nc2nc3ccccc3s2)c2ccccc21 | inconclusive: 22.4 µM [inhibitor, single point] | 
56 | CC(C)(C)c1cc2cccnc2n1Cc1cccc(F)c1 | inconclusive: 20 µM [inhibitor, partial curve] | 
57 | O=C(CC1N=C2c3ccccc3N=C(SCc3ccc(F)cc3)N2C1=O)NCc1ccco1 (centres undefined) | inconclusive: 25.1 µM [inhibitor, partial curve] | 
58 | OCC1OC([S-])[C@H](O)C(O)C1O.[Au+] (some centres undefined) | inconclusive: 28.2 µM [inhibitor, single point] | 
59 | CCC(OC(=O)C1=Cc2ccccc2OC1)C(=O)NCc1ccco1 (centres undefined) | inconclusive: 28.2 µM [inhibitor, partial curve] | 
60 | CC1(C)Cc2ccccc2-c2nc(NCCCO)n(-c3ccccc3)c(=O)c21 | inconclusive: 28.2 µM [inhibitor, partial curve] | 
61 | Fc1ccc(SCCc2ccncc2)cc1 | inactive | 
62 | Cc1ccc(NCC(=O)N=Nc2c(O)[nH]c3ccc([N+](=O)[O-])cc23)cc1 | inconclusive: 39.8 µM [inhibitor, single point] | 
63 | O=C(/C=C/c1cccs1)Nc1ccc(Br)cn1 |  | inactive: 6.57%
64 | COc1ccc(N=c2ssnc2Cl)cc1 | active: 20 µM | 
65 | COc1ccc2[nH]c(C(=O)N3CCCN(Cc4ccc(F)cc4)CC3)cc2c1 | inconclusive: 25.1 µM [inhibitor, partial curve] | 
66 | Cn1c(SCC(=O)OCc2ccccc2)nnc1-c1ccco1 |  | inactive: 4.29%
67 | O=C(CN1CCN(S(=O)(=O)c2ccc(Br)cc2)CC1)N/N=C/c1cccnc1 |  | inactive: -2.07%
68 | COc1ccc(C(CC(=O)N2CCCCC2)c2c(OC)cc(OC)c3ccc(=O)oc23)cc1 (centres undefined) | inconclusive: 35.5 µM [inhibitor, partial curve] | 
69 | O=C(N/N=C/c1ccccn1)c1cc(C2CC2)[nH]n1 | inconclusive: 39.8 µM [inhibitor, single point] | 
70 | O=c1c2[nH]c3ccccc3c2ncn1Cc1ccncc1 | inconclusive: 28.2 µM [inhibitor, partial curve] | 
71 | O=c1c2ccccc2sc2ccc(Cl)cc12 | inconclusive: 39.8 µM [inhibitor, single point] | 
72 | Cc1cc2c(cc(C(=O)OC(C(=O)NCC3CCCO3)C(C)C)n2C)o1 (centres undefined) | inconclusive: 28.2 µM [inhibitor, single point] | 
73 | O=C(O)CNc1ccccc1C(=O)O | inconclusive: 28.2 µM [inhibitor, partial curve] | 
74 | Cc1ccc(S(=O)(=O)c2nc(-c3ccco3)oc2NCC2CCCO2)cc1 (centres undefined) | inconclusive: 31.6 µM [inhibitor, single point] | 
